# Results from the supplement of paper PMC10338343.
# ± gives the standard deviation. In all, about 6,600 sequences were measured (“pre-steady-state target cleavage rate”: median about 0.07, highest 2% from about 0.72 on). Only a part is listed here, and it is no random draw.
# Tested on: MIWI (PIWIL1) piRISC loaded with Kctd7 piRNA (30 nt)
# Assay: pre-steady-state target cleavage rate (min^-1); MIWI and MILI are mouse PIWI proteins and EfPiwi is from a freshwater sponge; tags in brackets are library labels; higher = faster piRNA-guided slicing of the target
# Settings: guide: Kctd7 piRNA 5'p-UGUUAAUCUCUCAGAGAAGGUGACAGUGAU; auxiliary factor: 500 nM mouse GTSF1
# Summary of the method: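 A transcribed, DNA-blocked target RNA library […] was incubated at 33 °C for 0–8 or 0–960 min with 1 nM active affinity-purified piRISC carrying one synthetic guide, in HEPES–potassium acetate buffer with or without 500 nM GTSF1 partner protein. Uncleaved targets were then sequenced and normalised to depth and to weakly complementary targets. Data from three trials were pooled, with k3 capped at 0.0001 min^-1, and a burst-and-steady-state fit yielded the pre-steady-state cleavage rate.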
# 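Further: 1 nM active piRISC with 0.1 nM target library at 33 °C single turnover.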
row,Sequence,pre-steady-state target cleavage rate
1,UACUCUCUCACCUUCUCUGAGAGAUUAACA,0.195 ± 0.019
2,UAGACAGUCACCUUCUCUGACAGAUUAACA,0.571 ± 0.033
3,UAGUGACAGACCUUCUCUGAGAGGUUAACA,0.058 ± 0.015
4,UAGUGACAGUGCAUCUCUGAGAGAUAAACA,< 0.0001
5,UAGACUGUCACCUAGUCUGAGAGAUUAAGA,0.0592 ± 0.015
6,UACCCUGUCACCUUCUCUGAGAGAUUAACA,0.638 ± 0.034
7,UUCACUCAGACCUUCUCUGAGAGAUUAAGA,0.011 ± 0.0036
8,UAGUGUGUCACCUUGUCUGACAGAUUAACA,0.204 ± 0.032
9,UAGUGACAGAGCUUCUCUGAGAGAUUUACA,0.00888 ± 0.0034
10,UAGACUGUCACCUUCUCUCACAGAUUAACA,0.00825 ± 0.002
11,UAGUGACAGACCUUCUGUGAGAGAUUUACA,0.0319 ± 0.0076
12,AUGACUGUCACGUUCUCUGAGAGAUUAACA,0.755 ± 0.054
13,UAGUCUGACACCUUCUCUGAGAGAAUAACA,0.22 ± 0.04
14,UAGUGACACACCUUCUCUGGAGAUUAACA,0.0248 ± 0.0053
15,UAGUGACAGUUCUUCUCUGAGAGAUUAACA,0.0202 ± 0.0035
16,UAGUGACAGUCCAUCUCUGAGAGAUUAUCA,0.0033 ± 0.0029
17,UAGUGUGUCACCUUCUCUGAGAGUUUAACA,0.473 ± 0.087
18,UUCACUGUCACAUUCUCUGAGAGAUUAACA,0.682 ± 0.031
19,UAGUGACUCACCUUCUCUGAGAGAUAUUCA,0.0696 ± 0.016
20,UAGUCUGUCACCUUCUCUGACGAGAUUAACA,0.0121 ± 0.0053
21,UAGUCUGUCGCCUUCUCUGAGAGAUUAACA,0.684 ± 0.053
22,UAGUGUGUCACCGUUCUCUGAGAGAUUAACA,0.453 ± 0.037
23,UAGUGAGUCUCCUUCUCAGAGAGAUUAACA,0.152 ± 0.017
24,UAGUGACAGUCCUUCUCUGAGAUAUUAACA,0.0174 ± 0.0036

row,Sequence,pre-steady-state target cleavage rate
1,UAGUGACAGUGGAAGAGUGAGUGUUUAACA,< 0.0001
2,UAGUGAGUCACCUUCUCUGAGACUUAUUGA,0.00403 ± 0.0035
3,UAGUCUGUCACCUUCUCUGAGAGAAAAACA,0.144 ± 0.027
4,UAGUGAGUCACGUUCUCUGAGAGAUUAUGA,0.0314 ± 0.0098
5,UAGUGACAGACCUUCUCUGAGAGAUAAACA,0.0673 ± 0.0093
6,AUCACUGUCACCUUCUGAGAGAGAUUAACA,0.06 ± 0.0094
7,AUCACUGUCACCUUCUCUGAGUGAUUAAGA,0.00862 ± 0.0047
8,AUCACUGUCACCUUCUCUGAGAGAAUUAACA,0.738 ± 0.13
9,UAGACUCUCACCUUCUCUGUGAGAUUAACA,0.197 ± 0.0098
10,UAGUGACAGUCCUUCGUCUGAGAGAUUAACA,0.00403 ± 0.0018
11,UACACUGUCAGCCUUCUCUGAGAGAUUAACA,0.259 ± 0.021
12,UAGUGACACACCAUCACUGAGAGAUUAACA,0.0435 ± 0.0092
13,UACACUGUCACCAUCUCUGACAGAUUAACA,0.173 ± 0.016
14,UAGUGACAGACCUUCUCUGAGCGAUUAACA,0.0395 ± 0.0057
15,UAGUGACACUCCUUCUCUCAGAGAUUAACA,0.0115 ± 0.0032
16,UAGUGACAGUGCUUCUCUGACAGAUAAACA,< 0.0001
17,AUCACUGUCACCUUCUCUGACAGUUUAACA,0.038 ± 0.0079
18,UUCACAGACACCUUCUCUGAGAGAUUAACA,0.505 ± 0.03
19,UACACUGCCACCUUCUCUGAGAGAUUAACA,0.613 ± 0.035
20,AAGUCUGUCACCUUCUCUGAGAGAUUAACA,0.704 ± 0.031
21,UAGUGACAGACCUACUCUGAGAGAUUAUCA,0.0129 ± 0.0039
22,UACACUGUCUGGUUCUCUGAGAGAUUAACA,0.127 ± 0.013
23,UACACUGUCACAUUCUCUGAGAGAUUAACA,0.676 ± 0.036
24,UAGUGACAGUCCUUCUCUGACAGAUUAACA,0.0132 ± 0.0036

row,Sequence,pre-steady-state target cleavage rate
1,UAGUGACAGUCCUUCUCUGAGAGAAUUAACA,0.0106 ± 0.0025
2,UAGUGAGUCACCUUCUCUGAGAGAUUUACA,0.215 ± 0.029
3,UAGUGACAGUCCUUCUCUGAGUCUAAUUGA [g10:g20:cont:t1A],< 0.0001
4,UACACUGUCACCUACUCUGAGAGAUUUACA,0.368 ± 0.059
5,AUCACUGUCACCUUCUCUGUGAGAUUAACA,0.309 ± 0.017
6,UACACUGUCUCCUUCUCUGAGAGAUUUUGA,0.0639 ± 0.021
7,UAGUGACAGACCUUGUCUGAGAGAUUAUCA,0.0133 ± 0.0074
8,AUCAGACUCACCUUCUCUGAGAGAUUUUGA,0.0093 ± 0.0036
9,UAGUGACAGACCAUCUCUGAGAGAUUAUCA,0.00822 ± 0.0029
10,UUCACUGUCAGCCUUCUCUGAGAGAUUAACA,0.292 ± 0.026
11,UAGACUGUCACCUUCAGUGAGAGAUUAAGA,0.0193 ± 0.0072
12,UUCACUGUCACCUUCUCUGAGAGAGUAACA,0.228 ± 0.037
13,UAGUCUGUCACCUUCUCUGAGAGAUGUAACA,0.332 ± 0.044
14,UAGUGAGUCACCUUCUCUGAGAGAUUUUCA,0.137 ± 0.027
15,UAGACUGUCACCUAGUCUGAGAGAUUAACA,0.517 ± 0.035
16,UAGUGACAGUGGAAGAGACUCUCAUUAACC [g2:g7:cont:t1C],< 0.0001
17,UACACUGUCAGGUUCUCUGAGAGAUUAACA,0.477 ± 0.036
18,UACACUGUCAACUUCUCUGAGAGAUUAACA,0.796 ± 0.035
19,UAGUGACACACCUUCUCUGAGAGUUUAUCA,0.015 ± 0.0071
20,UAGUGAGUCACGUUCUCUGAGAGAUAAACA,0.237 ± 0.022
21,UAGUGUCGUCACCUUCUCUGAGAGAUUAACA,0.646 ± 0.043
22,UAGACUGUCAGCUUGUCUGAGAGAUUAACA,0.596 ± 0.034
23,UAGUGUCACACCUUCUCUGAGAGAUUAAGA,0.245 ± 0.044
